# Among all 1,200 compounds or so, about 30 (2%) were called active. About 23% were inconclusive and are not listed. Calls come from the whole dose curve; as a rule, active = well fitted inhibition curve with a large enough effect; inconclusive = small, poorly fitted or top-dose-only effect; inactive = flat fitted curve, though single readings scatter. The list shows a part of the results.
# Target: Single-stranded DNA cytosine deaminase (Homo sapiens) (UniProt Q9GZX7)
# Test: Confirmatory qHTS assay for inhibitors of Activation Induced Cytidine Deaminase (AID): AID signals
# Conditions: recombinant AID, FRET deamination/UDG coupled fluorescence, 4 h; series mostly up to 115 µM; activity, negative = inhibition: at the top concentration
# How it was run: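 Read 1 (AID) was measured at 540 ex/590 em after a 30 min NaOH step. The reaction was AID (1 uM, 4/3x stock) with UDG, compound at final 7.32 nM - 114 uM for 10 min, then DJC20/DJC23 substrate for 4 hr at room temperature. A UDG read at 560/665 serves as counterscreen.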
# % is set by controls: 0 for no effect and ±100 for the full control effect; potency is the fitted concentration of half-maximal effect.
# Chain of UniProt Q9GZX7 (Q9GZX7 whole entry, looked up): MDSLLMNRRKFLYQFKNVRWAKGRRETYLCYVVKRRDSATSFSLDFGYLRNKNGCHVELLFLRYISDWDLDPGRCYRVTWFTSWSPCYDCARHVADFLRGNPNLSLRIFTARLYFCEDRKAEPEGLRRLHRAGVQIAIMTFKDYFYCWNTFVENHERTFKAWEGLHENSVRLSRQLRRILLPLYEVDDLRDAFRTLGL
SMILES,"activity, negative = inhibition",Potency
CCc1nc2ccc(C(=O)N3CCN(c4ccc(Cl)cc4)CC3)cc2nc1CC,inactive: -22.4%,–
Cc1ccccc1CN1C(=O)c2ccccc2Sc2ccc(C(=O)O)cc21,inactive: -11.3%,–
CCOC(=O)c1ccc(NC(=O)CC2Nc3cccc4cccc(c34)NC2=O)cc1 (centres undefined),inactive: -7.25%,–
CCOc1ccccc1NC(=O)Nc1ccc2nc(N3CCN(C)CC3)cc(C)c2c1,inactive: -0.364%,–
CCOc1ccc(Nc2sc(C(=O)c3ccc(F)cc3)c(N)c2S(=O)(=O)c2ccc(C)cc2)cc1,inactive: 11.9%,–
Cc1cccc(NC(=O)CC2Nc3cccc4cccc(c34)NC2=O)c1 (centres undefined),inactive: -9.51%,–
Cc1nc2nc(SCC(=O)N(C)Cc3ccccc3)nn2c(C)c1Cc1ccccc1Cl,inactive: -17.7%,–
COc1ccc2c(c1)Cc1sc(NC(=O)c3ccccc3C)nc1-2,inactive: 60.4%,–
CCCCOc1ccc(C(=O)NCC(c2ccc(Cl)cc2)N2CCOCC2)cc1 (centres undefined),inactive: -2.89%,–
CCN1CCN(c2cc(C)c3cc(NC(=O)/C=C/c4cccc(Cl)c4)ccc3n2)CC1,inactive: -16.3%,–
COc1ccc(CCNC(=O)c2nn(C)c3c2CSc2ccccc2-3)cc1OC,inactive: -13%,–
COc1cccc(C2CC(=O)N3CN(C4CCCCC4)CSC3=C2C#N)c1 (centres undefined),inactive: 3.35%,–
COc1cccc(-n2c(SCC(=O)Nc3cccc(C)c3)nc3c([nH]c4ccccc43)c2=O)c1,inactive: -10.8%,–
CCC1CCCCN1CCCNC(=O)c1cn(CC)c2ccc(S(=O)(=O)N(C)C3CCCCC3)cc2c1=O (centres undefined),inactive: -18%,–
O=C(CN(c1ccc(Cl)c(C(F)(F)F)c1)S(=O)(=O)c1ccccc1)Nc1cccnc1,inactive: 1.91%,–
CCOC(=O)c1cnc2ccc(C)cc2c1Nc1ccc(N(CC)CC)cc1,inactive: -28.1%,–
Cc1ccc(NCc2nc3ccccc3n2CCOc2ccccc2C)cc1,inactive: 9.26%,–
Cc1cc(Nc2cccc(F)c2)n2nc(-c3ccco3)nc2n1,inactive: 7.61%,–
O=C(NCCc1ccccc1)c1ccc2c(c1)CCN2S(=O)(=O)c1ccccc1,inactive: -3.44%,–
Cc1cc(C)c2c(CC(=O)N(Cc3ccc(Cl)cc3)Cc3ccco3)coc2c1,inactive: -3.99%,–
Cc1ccc(NC(=O)Cn2nc(Cc3ccncc3)c3ccccc3c2=O)c(Cl)c1,inactive: -1.39%,–
Cc1cc(Nc2cccc(C(F)(F)F)c2)nc2ccc(NC(=O)c3cccc(Cl)c3)cc12,inactive: -4.6%,–
Cn1nnnc1SCCNCc1cc(Br)ccc1OCc1ccccc1Cl,inactive: -9.06%,–
CC(C)(C)c1ccc(OCC(=O)NCC2(N3CCOCC3)CCCCC2)cc1,inactive: -8.96%,–

SMILES,"activity, negative = inhibition",Potency
CCc1ccc(NC(=O)CSc2nc(-c3cccc(OC)c3)nc3c2Cc2c(CO)cnc(C)c2O3)cc1,inactive: -11.1%,–
CCCCN(CC)C(=O)c1nn(-c2ccc(OC)cc2)c(=O)c2c1c1ccccc1n2C,inactive: -2.89%,–
COc1ccc(OC)c(CNC(=O)c2nn(C)c3c2CS(=O)(=O)c2ccccc2-3)c1,inactive: 3.75%,–
Cc1ccc(C)c(CSc2cn(CCNC(=O)c3cccs3)c3ccccc23)c1,inactive: 8.5%,–
CCCn1cc(S(=O)(=O)c2ccccc2)c(=O)c2cc(F)c(N3CCCCCC3)cc21,inactive: -13.5%,–
CCOc1ccc(-n2c(C)nc3cc(C(=O)NCc4ccc(C)cc4)ccc32)cc1,inactive: -14.6%,–
COc1ccccc1Nc1c2c(nc3ccc(NC(=O)c4ccc(OC)c(OC)c4)cc13)CCCC2,inactive: -12.8%,–
CCOc1ccccc1C(=O)Oc1c(S(=O)(=O)c2ccc(C)cc2)c(C)nn1-c1ccccc1,inactive: -21.8%,–
CCCCn1cc(S(=O)(=O)c2ccccc2)c(=O)c2cc(F)c(N3CCN(CCC)CC3)cc21,inactive: -8.83%,–
COc1ccc(C(CNC(=O)COc2cc(C)cc(C)c2)N2CCCCC2)cc1 (centres undefined),inactive: 1.26%,–
COc1ccc(-c2noc(CSc3nnc(-c4ccccc4)n3-c3ccc(F)cc3)n2)c(OC)c1,inactive: -12.2%,–
CCCn1c(SCc2nc(-c3cc(OC)ccc3OC)no2)nnc1-c1ccc(Cl)cc1,inactive: -13.3%,–
CCc1ccc(CN(Cc2ccco2)C(=O)c2ccc(OC)cc2)cc1,inactive: -19.1%,–
CCCn1c(SCc2nc(-c3ccc(OC)cc3OC)no2)nnc1-c1ccc(Cl)cc1,inactive: -22.8%,–
O=S(=O)(NCCc1nnc2ccc(SCc3ccc(Cl)cc3Cl)nn12)c1ccccc1,inactive: -20.5%,–
Cc1ccc(C)c(Nc2nn3c(=O)c4ccc(C(=O)NCc5cccs5)cc4nc3s2)c1,inactive: -12.7%,–
CCCN(CCC)CCCNC(=O)c1cn(CC)c2ccc(S(=O)(=O)N3CCc4ccccc4C3)cc2c1=O,inactive: -24.5%,–
O=C(Cc1ccccc1F)N1CCC(c2nc3c(nnn3Cc3cccc(Cl)c3)c(=O)[nH]2)CC1,inactive: -11.7%,–
COc1ccc(-n2cc(-c3ccccc3)c3c(NCCc4ccc(OC)c(OC)c4)ncnc32)cc1,inactive: -4.44%,–
CCOc1ccc(-c2noc(CSc3nnc(Cc4ccccc4)n3-c3cccc(C)c3)n2)cc1,inactive: -14.8%,–
CCc1ccc(Nc2nc(N)nc(CSc3nc4ccccc4s3)n2)cc1,inactive: -10.8%,–
O=C(NCCC1=CCCCC1)c1ccc2c(c1)ncn2-c1ccc(F)c(F)c1,inactive: -12.5%,–
Cc1ccc(N(Cc2cccs2)C(=O)c2ccc(Br)o2)cc1,inactive: -11%,–
CSc1ccc2c(c1)C(N1CCN(C)CC1)Cc1ccccc1S2 (centres undefined),inactive: -12.8%,–

SMILES,"activity, negative = inhibition",Potency
Cc1cccc(N2CCN(C(=O)C3CCN(c4ncnc5c4nc4n5CCCCC4)CC3)CC2)c1C,inactive: -17.9%,–
Cc1cccc(Cn2c(=O)n3nc(-c4ccccc4)nc3c3ccccc32)c1,inactive: -4.38%,–
COc1cc2c(cc1OC)C(COc1ccc(C(C)C)cc1)N(C(=O)COc1ccccc1)CC2 (centres undefined),inactive: 2.86%,–
Cc1ccccc1OCC(=O)N(Cc1ccc(C(C)C)cc1)C1CCS(=O)(=O)C1 (centres undefined),inactive: -6.16%,–
CCc1ccc(NC(=O)CSc2nc(=O)n(Cc3ccco3)c3c2CCC3)cc1,inactive: -16.1%,–
CCOC(=O)c1c(C)oc2nc(C)nc(NC(C)c3ccccc3)c12 (centres undefined),inactive: 8.51%,–
Cn1c(SCc2ccc(F)cc2)nc2ccc(C(=O)NCc3ccc(F)cc3)cc21,inactive: -11.1%,–
CCOc1ccccc1NC(=O)CSc1nccn1-c1ccc(Cl)cc1,inactive: -6.02%,–
CCOc1ccc(CNC(=O)c2c(C)nn(-c3ccc(F)cc3)c2-n2cccc2)cc1,inactive: -6.04%,–
COc1ccc(C(=O)c2cn(Cc3ccc(F)cc3)c3ccc(C)cc3c2=O)cc1,inactive: -22.6%,–
Cc1ccc(-c2nc3ccccn3c2Nc2ccc3c(c2)OCO3)cc1,inactive: -7.46%,–
N#C/C(=C\c1ccc(-c2cc(Cl)ccc2Cl)o1)C(=O)Nc1cccc2ncccc12,inactive: -28.6%,–
Cc1cccc(CN2C(=O)c3ccccc3S(=O)(=O)c3ccc(C(=O)NCCC4=CCCCC4)cc32)c1,inactive: -6.03%,–
COc1ccc(Cl)cc1NC(=O)c1c(NCc2ccc(C)o2)sc2c1CCCCC2,inactive: 27.8%,–
Cc1ccc(Nc2c(-c3cccs3)nc3nc(C)cc(C)n23)cc1,inactive: -6.24%,–
CCC(C(=O)Nc1cc(Cl)ccc1OC)n1nc(-c2ccccc2)ccc1=O (centres undefined),inactive: -8.36%,–
COc1ccc(C(=O)NCC(c2cccnc2)N2CCc3ccccc32)cc1 (centres undefined),inactive: 1.56%,–
CN(Cc1ccccc1)C(=O)c1ccc(CSc2nc3cccnc3n2Cc2ccccc2)cc1,inactive: -23.7%,–
Cc1ccc2c(c1)-c1c(cnn1CC(=O)N1CCN(c3cccc(C(F)(F)F)c3)CC1)CO2,inactive: -13.5%,–
Cc1ccc(C)c(N2CCN(CCCNc3ncnc4onc(-c5ccc(Cl)cc5)c34)CC2)c1,inactive: -2.73%,–
Cc1cccc(-n2ncc(C(=O)NCc3ccc4c(c3)OCO4)c2C2CCN(C(=O)OC(C)(C)C)CC2)c1,inactive: -11%,–
Cc1ccc(N2C(=O)CSC23C(=O)N(CC(=O)Nc2ccc(C(C)C)cc2)c2ccccc23)cc1C (centres undefined),inactive: -3.35%,–
COc1ccc(NC(=O)c2c(NC(=O)c3ccc(Br)cc3)sc3c2CCCC3)cc1,inactive: 12.5%,–
CCCCN1C(C(=O)c2ccccc2)=C(OC(C)=O)c2ccccc2S1(=O)=O,inactive: 1.35%,–

SMILES,"activity, negative = inhibition",Potency
COc1ccc(C)cc1N(C)C(=O)c1c2c(nc3ccccc13)C(=O)N(C1CCCCC1)C2,inactive: -15.8%,–
Cc1c(NC(=O)C(C)(C)Oc2ccc(Cl)cc2)cccc1-c1nc2ncccc2o1,inactive: -8.2%,–
O=C(Nc1ccc(F)cc1F)c1ccc2c(O)c(S(=O)(=O)c3ccc(Cl)cc3)c(=O)[nH]c2c1,inactive: -25.6%,–
Cc1ccccc1Cc1c(C)nc2nc(SCC(=O)NCCc3ccc(Cl)cc3)nn2c1C,inactive: -17.9%,–
COc1ccc(CNCCC(c2ccccc2)c2ccc3c(c2)OCO3)cc1 (centres undefined),inactive: -14.1%,–
CCC1CCCCN1C(=O)CSc1nc2c([nH]c3ccccc32)c(=O)n1-c1cccc(OC)c1 (centres undefined),inactive: -12.2%,–
CCn1cc(C(=O)NCCCN2CCC(C)CC2)c(=O)c2cc(S(=O)(=O)N(C)C3CCCCC3)ccc21,inactive: -5.33%,–
Cc1cccc(-c2nc3c(cnn3-c3ccccc3)c(=O)n2-c2cccc(Cl)c2)c1,inactive: -16.3%,–
CC(C)(C)OC(=O)N1CCC(c2c(C(=O)Nc3ccc4c(c3)OCCO4)cnn2-c2ccc(F)cc2)CC1,inactive: -8.55%,–
COc1ccc(-c2cc(C(=O)Oc3ccccc3)c3cc(C)ccc3n2)cc1,inactive: 6.53%,–
O=C(c1noc2c1CCCCC2)N1CCN(c2ccc(Cl)cc2)CC1,inactive: -0.744%,–
Cn1c(=O)c2c(-c3ccc(Br)cc3)n(CCc3ccccc3)cc2n(C)c1=O,inactive: -16.2%,–
CCc1ccc(OCC(=O)N(Cc2ccco2)Cc2ccccc2Cl)cc1,inactive: -6.48%,–
O=C1c2ccccc2C(=O)C1(c1ccccc1)N1CCN(c2cccc(C(F)(F)F)c2)CC1,inactive: -4.48%,–
Cc1ccc(S(=O)(=O)c2nnn3c2nc(N2CCCCC2)c2sccc23)cc1,inactive: -17.3%,–
Cc1ccc(C(=O)/C=C/c2cn(CC(O)CN3CCCCCC3)c3ccccc23)cc1 (centres undefined),inactive: -11.7%,–
CC(=O)Nc1ccc(S(=O)(=O)Nc2nc3n(n2)C(c2ccccc2)C=C(c2ccc(Cl)cc2)N3)cc1 (centres undefined),–,active: 39.8 µM
COc1ccccc1CN(Cc1ccco1)c1cnc(S(C)(=O)=O)nc1C(=O)Nc1ccccc1Cl,inactive: -2.2%,–
CCCn1c(SCc2nc(-c3ccccc3OCC)no2)nnc1-c1ccc(Cl)cc1,inactive: -16.7%,–
CN(c1ccc(F)cc1)S(=O)(=O)N1CCCC(C(=O)NCc2cccc(Br)c2)C1 (centres undefined),inactive: -8.21%,–
O=C(C1CCC(Cn2c(=O)c3sccc3n(Cc3ccccc3)c2=O)CC1)N1CCCCC1 (centres undefined),inactive: -13.8%,–
Cc1cccc(Cn2cc(C(=O)c3ccccc3)c(=O)c3cc4c(cc32)OCO4)c1,inactive: -23.8%,–

# Reference: PubChem BioAssay AID1347434 (National Center for Advancing Translational Sciences (NCATS), 2020)
